Experimental data as given in the supplement of paper PMC7826260.
Some of the results follow. One pool of 16,384 single-stranded DNAs met each Rep nickase domain in vitro for 1 h at 37 °C with 3 µM enzyme; only the middle of the 90-letter strands is printed. The score is log2 (uncut reads / reads without enzyme); uncut sequences lie near 0, cut ones below; no hit call is given. Reads are scaled to the total; uncut strands gain when others are lost, and binding without cutting may add a little.

Each sequence was assayed on T1, Rep nickase domain of tomato golden mosaic virus (assay: uncleaved DNA left, log2 of reads against the no-enzyme library (log2 ratio); higher = less cleavage (more negative = more Rep cleavage of the k-mer); sequences stand for … in CTCGTCCG…ACCGGAGA).
T1 sequence (residues 1-124 of Rep, tag left off): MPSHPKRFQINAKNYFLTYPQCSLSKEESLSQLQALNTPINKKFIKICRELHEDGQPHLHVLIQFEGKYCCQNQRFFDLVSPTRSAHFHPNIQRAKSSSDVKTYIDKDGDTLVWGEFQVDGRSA
Description: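 A pool of 90-nt single-stranded DNAs with seven random bases just before the constant AC of the nick site (name = the seven bases) was cut by 3 µM recombinant His6-SUMO-tagged Rep nickase domain (300 nM DNA, 50 mM HEPES pH 8.0, 50 mM NaCl, 1 mM MnCl2, 1 h, 37 °C, three replicates). Uncut DNA was amplified and sequenced.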
In the case of ACTTTTA, the “uncleaved DNA left (log2)” value is reported as -0.0618.
For GCCGGCG, the “uncleaved DNA left (log2)” value was 0.162.
CATGTCG was tested, and the “uncleaved DNA left (log2)” value was -0.0679.
AGCACCC was tested, and the “uncleaved DNA left (log2)” value was -0.0366.
With TGTCCTT the “uncleaved DNA left (log2)” value was -0.206.
In the case of TGTCGGC, the “uncleaved DNA left (log2)” value is reported as 0.0116.
In the case of TGATTCT, the “uncleaved DNA left (log2)” value is reported as -0.211.
With GACCGTT the “uncleaved DNA left (log2)” value was 0.0947.
With ATTTCAG the “uncleaved DNA left (log2)” value was -0.0959.
TCGCTCG was tested, and the “uncleaved DNA left (log2)” value was 0.0322.
AACGCTG was tested, and the “uncleaved DNA left (log2)” value was 0.145.
In the case of CATCCGT, the “uncleaved DNA left (log2)” value is reported as -0.127.
For TCATCCG, the “uncleaved DNA left (log2)” value was -0.0794.
For TATCTTG, the “uncleaved DNA left (log2)” value was -0.0719.
In the case of AATTTAT, the “uncleaved DNA left (log2)” value is reported as 0.0364.
In the case of TTTCTCA, the “uncleaved DNA left (log2)” value is reported as -0.0591.
GGCCGAA was tested, and the “uncleaved DNA left (log2)” value was 0.115.
With GTGGCGC the “uncleaved DNA left (log2)” value was -0.0742.
For TAGAGGT, the “uncleaved DNA left (log2)” value was 0.176.
In the case of CCGTGAC, the “uncleaved DNA left (log2)” value is reported as -0.0238.
With TTCACTG the “uncleaved DNA left (log2)” value was -0.206.
For CAACTAA, the “uncleaved DNA left (log2)” value was 0.0525.
GATATTG was tested, and the “uncleaved DNA left (log2)” value was -0.00635.
With CCTGCAC the “uncleaved DNA left (log2)” value was -0.0623.
With GATCGCC the “uncleaved DNA left (log2)” value was -0.19.
For GCCCTAG, the “uncleaved DNA left (log2)” value was -0.0078.
TATTGAA was tested, and the “uncleaved DNA left (log2)” value was -0.0233.
ATAGCAG was tested, and the “uncleaved DNA left (log2)” value was -0.0245.
In the case of TCGCAAA, the “uncleaved DNA left (log2)” value is reported as -0.106.
With TGAGTAG the “uncleaved DNA left (log2)” value was 0.0926.
In the case of AATCTGC, the “uncleaved DNA left (log2)” value is reported as 0.0617.
TCACCCG was tested, and the “uncleaved DNA left (log2)” value was -0.0409.
For TACTGAT, the “uncleaved DNA left (log2)” value was -0.256.
In the case of CAGCAAT, the “uncleaved DNA left (log2)” value is reported as 0.153.
CCGGCTG was tested, and the “uncleaved DNA left (log2)” value was 0.0929.
With CGCACTC the “uncleaved DNA left (log2)” value was -0.234.
For TGCGAGA, the “uncleaved DNA left (log2)” value was 0.15.
In the case of GTGACTT, the “uncleaved DNA left (log2)” value is reported as -0.0599.
For TCGCATC, the “uncleaved DNA left (log2)” value was 0.0583.
TTTTGCC was tested, and the “uncleaved DNA left (log2)” value was -0.116.
